Laboratory results reported in paper PMC7508895 (Nanomedicine : nanotechnology, biology, and medicine, 2020).

Tests used:
[1] = molecular target: the molecule itself; assay: SEC-MALS
[2] = molecular target: T1, CD99 (human (endogenous in MOLM-13, MV4-11, …, UniProt P14209 23-185)); assay: flow cytometry on cells
T1 sequence (looked up): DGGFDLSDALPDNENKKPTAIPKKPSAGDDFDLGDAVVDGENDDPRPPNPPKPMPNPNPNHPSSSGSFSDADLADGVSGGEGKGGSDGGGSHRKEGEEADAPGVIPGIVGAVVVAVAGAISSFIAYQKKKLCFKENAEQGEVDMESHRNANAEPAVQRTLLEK

fold binding (rhodamine MFI) at 1 μM, U937 cells [2]: 1.5 fold
fold binding (rhodamine MFI) at 10 μM, U937 cells [2]: 1.9 fold
fold binding (rhodamine MFI) over A192 at 1 μM, MOLM-13 cells [2]: 2.4 fold
fold binding (rhodamine MFI) over A192 at 1 μM, MV4-11 cells [2]: 1.7 fold
fold binding (rhodamine MFI) over A192 at 10 μM, MOLM-13 cells [2]: 3.1 fold
fold binding (rhodamine MFI) over A192 at 10 μM, MV4-11 cells [2]: 2.8 fold
B1: α-CD99-A192 (scFv)
scFv: [about 100 residues not printed]SHKRFDYWGQGTLVTVSRGGGGSGGGGSGGGGSSELTQDPAVSVALGQTVRITCQGDSLRSYYASWYQQKPGQAPVLVIYGKNNRPSGIPDRFSGSSSGNTASLTITGAQAEDEADYYCNSSFPRTSSVVFGGGTKLTVLGLVPRGSGVPGAGVPGAGVPGAGVPGAGVPGAGVPGAGVPGAGVPGAGVPGAGVPGAGVPGAGVPGAGVPGAGVPGAGVPGAGVPGAGVPGAGVPGAGVPGAGVPGAGVPGAGVPGAGVPGAGVPGAGVPGAGVPGAGVPGAGVPGAGVPGAGVPGAGVPGAGVPGAGVPGAGVPGAGVPGAGVPGAGVPGAGVPGAGVPGAGVPGAGVPGAGVPGAGVPGAGVPGAGVPGAGVPGAGVPGAGVPGAGVPGAGVPGAGVPGAGVPGAGVPGAGVPGAGVPGAGVPGAGVPGAGVPGAGVPGAGVPGAGVPGAGVPGAGVPGAGVPGAGVPGAGVPGAGVPGAGVPGAGVPGAGVPGAGVPGAGVPGAGVPGAGVPGAGVPGAGVPGAGVPGAGVPGAGVPGAGVPGAGVPGAGVPGAGVPGAGVPGAGVPGAGVPGAGVPGAGVPGAGVPGAGVPGAGVPGAGVPGAGVPGAGVPGAGVPGAGVPGAGVPGAGVPGAGVPGAGVPGAGVPGAGVPGAGVPGAGVPGAGVPGAGVPGAGVPGAGVPGAGVPGAGVPGAGVPGAGVPGAGVPGAGVPGAGVPGAGVPGAGVPGAGVPGAGVPGAGVPGAGVPGAGVPGAGVPGAGVPGAGVPGAGVPGAGVPGAGVPGAGVPGAGVPGAGVPGAGVPGAGVPGAGVPGAGVPGAGVPGAGVPGAGVPGAGVPGAGVPGAGVPGAGVPGAGVPGAGVPGAGVPGAGVPGAGVPGAGVPGAGVPGAGVPGAGVPGAGVPGAGVPGAGVPGAGVPGAGVPGAGVPGAGVPGAGVPGAGVPGAGVPGAGVPGAGVPGAGVPGAGVPGAGVPGAGVPGAGVPGAGVPGAGVPGAGVPGAGVPGAGVPGAGVPGAGVPGAGVPGAGVPGAGVPGAGY
modifications: NHS-rhodamine label in the flow cytometry and confocal assays; no label told for DLS and SEC-MALS
stoichiometry N [1]: 171 molecules per nanoworm
